# Source: PubChem BioAssay AID1347073 (National Center for Advancing Translational Sciences (NCATS), 2019)
# Screen size: about 45,000 compounds; about 200 (0.44%) were called active. Inconclusive results (about 7%) are left out. Calls follow the shape of the dose curve; as a rule, active = well fitted activation curve with a large enough effect; inconclusive = small, poorly fitted or top-dose-only effect; inactive = no such curve, though single readings can be large or run the other way. The list shows a part of the results.
# Assay: qHTS of TDP-43 Inhibitors: NCGC Sytravon Library Screen; also: 0% is about no effect; nearly all actives have a fitted effect of over 55% in size
# Conditions: yeast TDP-43 toxicity rescue, BacTiter-Glo growth, 24 h; series mostly up to 46.1 µM; growth rescue (activation): at the top concentration
# Outline: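 TDP-43-expressing yeast, pregrown in raffinose, seeded at OD600 0.02 in galactose medium with compound for 24 hr at 30 deg C. Growth read by BacTiter-Glo luminescence, so rescue of toxicity appears as activation.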
row,Compound,growth rescue (activation)
1,Cc1ccccc1C(=O)NC(=S)Nc1ccccc1C(=O)O,inactive: -10.5%
2,O=C(CSc1nc2scc(-c3ccccc3)c2c(=O)[nH]1)N1CCCCC1,inactive: -2.15%
3,O=C(N/N=C/c1ccccc1O)C1CC(=O)N(c2ccc(F)cc2)C1 (configuration not stated),inactive: 6.85%
4,COCCNC(=O)C1(C)CCN(C(=O)c2cc(-c3ccccc3)cs2)C1 (configuration not stated),inactive: 3.77%
5,Cc1cc(C)n2nc(SCC(=O)N3CC(C)CC(C)C3)nc2n1 (configuration not stated),inactive: 14.8%
6,O=S(=O)(Nc1cccc2ccccc12)c1ccccc1F,inactive: -2.9%
7,CC(c1nccs1)N(C)c1nc2nonc2nc1N(C)C (configuration not stated),inactive: 7.73%
8,COc1ccc(Cc2nnc(-c3ccccc3)o2)cc1,inactive: 23.3%
9,CCOC(=O)c1ccc(N(C(=O)CNC(=O)c2ccco2)C(C(=O)NCC2CCCO2)c2ccc(OC)c(OC)c2)cc1 (configuration not stated),inactive: 2.38%
10,Cc1cccc(C)c1NC(=O)CCCSc1nc2ccccc2s1,inactive: 2.03%
11,COc1cc(C2NC(=S)NC(c3ccccc3)=C2C(C)=O)ccc1O (configuration not stated),inactive: -7.19%
12,O=C(Nc1cccc(C(F)(F)F)c1)C(=O)N1CCCCC1,inactive: 3.86%
13,CN1C(=O)Cc2cc(S(=O)(=O)NCc3c(F)cccc3Cl)ccc21,inactive: 10.8%
14,COCCNc1nnc(SCC(=O)NNC(=O)c2ccccc2)s1,inactive: 4.58%
15,Cc1ccc(C([O-])=C(C(=S)NCc2ccccc2)[n+]2cccc(CO)c2)cc1[N+](=O)[O-],inactive: 9.18%
16,O=C(O)c1cc(Cl)ccc1OS(=O)(=O)c1ccc(Cl)s1,inactive: 1.06%
17,Cn1c(SCC(=O)c2ccc3c(c2)NC(=O)CO3)nc2ccccc21,inactive: 9.7%
18,CC(C)CC(=O)Nc1ccc(Cc2ccncc2)cc1,inactive: -7.3%
19,S=c1[nH]nc(CCc2ccccc2)n1-c1ccc(Cl)cc1,inactive: 19.3%
20,S=C(NCC(c1cccnc1)N1CCOCC1)NC1CCCCC1 (configuration not stated),inactive: 5.22%
21,CCNc1ccc(C(=O)N/N=C/c2c(C)nn(-c3ccccc3)c2N2CCCC2)cc1[N+](=O)[O-],inactive: 6.23%
22,CC(=O)c1ccc(OCc2nnn(CC(=O)NS(=O)(=O)Cc3ccccc3)c2-c2ccccc2)cc1,inactive: -1.15%
23,COc1ccc(S(=O)(=O)NCCOc2cccc3cccnc23)cc1OC,inactive: 8.88%

row,Compound,growth rescue (activation)
1,O=S(=O)(Cc1ccccc1)N1CCNCC1,inactive: -7.63%
2,CN(C(=O)COC(=O)c1ccc2c(=O)n3c(nc2c1)CCC3)c1ccccc1,inactive: 15.7%
3,COc1ccc(S(=O)(=O)Nc2ccc3c(c2)n(C)c(=O)n3C)cc1C,inactive: 2.63%
4,COCc1cc(C)[nH]c(=O)c1C(=O)NC12CC3CC(CC(C3)C1)C2,inactive: 0.728%
5,CCCCCOC(=O)Cn1c(N2CCCCCC2)nc2c1c(=O)[nH]c(=O)n2C,inactive: -15.3%
6,O=C(COC(=O)c1cnccn1)NCCc1ccc(Cl)cc1Cl,inactive: 8.57%
7,CCCCNC(=S)NC(=O)c1ccccc1Br,inactive: 20.2%
8,CCOC(=O)C1(C)CCN1C(=O)c1ccc(C(=O)OC)cc1 (configuration not stated),inactive: 5.24%
9,O=[N+]([O-])c1cccc(/C=N/N2CCN(c3ccccn3)CC2)c1,inactive: 24%
10,CC(=O)c1ccc(N2CCN(C(=O)[C@H](C)NC(=O)c3ccccc3Cl)CC2)cc1,inactive: 13.7%
11,CC(=O)Nc1ccc(NC(=S)NC(=O)/C=C/c2ccco2)cc1,inactive: 7.24%
12,O=C1CC(c2cc(F)ccc2F)c2cc3c(cc2N1)CCC3 (configuration not stated),inactive: -35.4%
13,COc1ccc(OC)c(S(=O)(=O)N2CCC(C(=O)NC3CCCC3)CC2)c1,inactive: 0.997%
14,COc1ccccc1N(CC(=O)NCc1ccccc1)C(=O)CCC(=O)Nc1nccs1,inactive: -6.82%
15,O=C(/C=C/c1ccco1)Nc1ccc(S(=O)(=O)N2CCOCC2)cc1,inactive: 5.58%
16,COc1ccc(NC(=O)CSc2nnc(-c3ccncc3)n2C)cc1,inactive: -15.2%
17,COC(=O)c1c(C(=O)OC)c(-c2ccc(C)cc2)n2c1CS(=O)C2 (configuration not stated),inactive: 6.38%
18,O=C(CSc1ccc(Br)c2cccc(Cl)c12)Nc1ccc(S(=O)(=O)Nc2nccs2)cc1,inactive: 3.19%
19,COc1ccc(NC(=O)CSc2nnc(-c3cccnc3)n2Cc2ccco2)c(OC)c1,inactive: -13.8%
20,Cc1ccc(S(=O)(=O)N2CCN(CC(=O)N/N=C/c3ccco3)CC2)cc1,inactive: -1.91%
21,COc1ccc(Nc2cc(=O)n(C3CCCCC3)c(=O)[nH]2)c(OC)c1,inactive: 12.6%
22,CCN(C(=O)COC(=O)c1cc(S(=O)(=O)N2CCOCC2)c(Cl)cc1Cl)C1CCS(=O)(=O)C1 (configuration not stated),inactive: 0.117%
23,COc1ccc(CNC(=O)CCNS(=O)(=O)c2ccc(Cl)cc2)cc1,inactive: 11.5%

row,Compound,growth rescue (activation)
1,O=C(O)c1ccc(/C=C/C(=O)c2ccc3c(c2)OCCCO3)cc1,inactive: 21%
2,CS(=O)(=O)N1CCN(c2ccc([N+](=O)[O-])c(NCc3ccc(Cl)cc3)c2)CC1,inactive: -12.1%
3,CC1(C)CC(=O)C(C=Nc2ccc(NC3=C(C#N)C(=O)CC(C)(C)C3)cc2)=C(O)C1,inactive: -4.67%
4,O=C(CSc1nc2nn(-c3ccccc3)c(=O)c-2c2n1CCCCC2)Nc1ccc(OC(F)F)cc1,inactive: 7.44%
5,CSc1ccc(C(=O)C2CCCN(Cc3cccc4nccnc34)C2)cc1 (configuration not stated),inactive: 13.9%
6,COc1ccc(C2c3c(ccc4ccccc34)Oc3ncn4nc(-c5ccco5)nc4c32)cc1OC (configuration not stated),inactive: 16.8%
7,O=C(Nc1cccc(S(=O)(=O)N2CCOCC2)c1)c1cc2ccccc2o1,inactive: -11.5%
8,COC(=O)c1ccc(-c2nc(O)c(C)s2)cc1,inactive: 8.82%
9,C=C(C)CN1C(=O)C2(OCCO2)c2ccccc21,inactive: -3.51%
10,COc1ccccc1NC(=O)C1CCN(S(=O)(=O)c2cccc3nonc23)CC1,inactive: 5.86%
11,COc1ccc(N(C(=O)CNC(=O)c2ccco2)C(C(=O)NC2CCCCC2)c2cccnc2)cc1 (configuration not stated),inactive: 6.08%
12,Cc1cc(C)nc(N/C(=N/S(=O)(=O)Cc2ccccc2)Nc2ccccc2)n1,inactive: -5.29%
13,C=C(C)CSc1nc2sc3c(c2c(=O)n1Cc1ccccc1)CC(C)(CC)OC3 (configuration not stated),inactive: 1.46%
14,Cc1ccccc1N(CC(=O)NCc1ccccc1)C(=O)CCC(=O)Nc1nccs1,inactive: -2.5%
15,COc1ccc(C(=O)OCC(=O)Nc2cccc(C(C)=O)c2)c(OC)c1OC,inactive: -7.07%
16,COc1ccc(CNC(=O)C(Cc2ccccc2)n2cccc2)cc1 (configuration not stated),inactive: 15.1%
17,O=C(COC(=O)C1COc2ccccc2O1)NC1CCCCC1 (configuration not stated),inactive: 15.2%
18,CCN(C(=S)Nc1cccc(C)c1)c1ccccc1,inactive: 25.8%
19,COc1ccc(/C=C(\NC(=O)c2ccco2)C(=O)NCc2ccco2)cc1,inactive: -0.0375%
20,CCOc1cc(N2CCCC2)ccc1[N+](=O)[O-],inactive: 17.5%
21,CCCCn1nc(CC(=O)NCCN(CC)CC)c2ccccc2c1=O,inactive: 1.21%
